Several values for one entry are separate records, joined by “and”; a condition that tells them apart may be missing. Identical values can stand only once. Screen size: about 270,000 compounds; about 5,800 (2.1%) were called active. The inconclusive results got no clear call from the source; some entries with a clear call stand among them for comparison. The call rests on the fitted dose curve; in most records, active means well fitted inhibition curve with a large enough effect; inconclusive means small, poorly fitted or top-dose-only effect; inactive means flat fitted curve, though single readings scatter. Where the call is inconclusive, the potency comes from a doubtful curve fit. More than one record can exist for a structure, and the calls need not agree.
Molecular target: Microtubule-associated protein tau (Homo sapiens) (UniProt P10636)
Assay: qHTS for Inhibitors of Tau Fibril Formation, Thioflavin T Binding; further: nearly all actives have a fitted effect of over 55% in size
Settings: recombinant tau K18 P301L (four-repeat tau fragment), heparin-induced fibrillization, ThT fluorescence; series mostly up to 57.4 µM
Summary of the method: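 Heparin-induced (20 uM) aggregation of recombinant human K18 P301L tau, 15 uM unlabeled with 0.24 uM labeled, pH 7 acetate buffer, 6 hr at 37 C with compound. Fibrils quantified by 30 uM ThT fluorescence after 1 hr ambient incubation.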
Potency means the concentration at half of the fitted maximal effect; tags describe the fitted curve by direction and shape.

UniProt P10636, sequence (P10636 whole entry, looked up): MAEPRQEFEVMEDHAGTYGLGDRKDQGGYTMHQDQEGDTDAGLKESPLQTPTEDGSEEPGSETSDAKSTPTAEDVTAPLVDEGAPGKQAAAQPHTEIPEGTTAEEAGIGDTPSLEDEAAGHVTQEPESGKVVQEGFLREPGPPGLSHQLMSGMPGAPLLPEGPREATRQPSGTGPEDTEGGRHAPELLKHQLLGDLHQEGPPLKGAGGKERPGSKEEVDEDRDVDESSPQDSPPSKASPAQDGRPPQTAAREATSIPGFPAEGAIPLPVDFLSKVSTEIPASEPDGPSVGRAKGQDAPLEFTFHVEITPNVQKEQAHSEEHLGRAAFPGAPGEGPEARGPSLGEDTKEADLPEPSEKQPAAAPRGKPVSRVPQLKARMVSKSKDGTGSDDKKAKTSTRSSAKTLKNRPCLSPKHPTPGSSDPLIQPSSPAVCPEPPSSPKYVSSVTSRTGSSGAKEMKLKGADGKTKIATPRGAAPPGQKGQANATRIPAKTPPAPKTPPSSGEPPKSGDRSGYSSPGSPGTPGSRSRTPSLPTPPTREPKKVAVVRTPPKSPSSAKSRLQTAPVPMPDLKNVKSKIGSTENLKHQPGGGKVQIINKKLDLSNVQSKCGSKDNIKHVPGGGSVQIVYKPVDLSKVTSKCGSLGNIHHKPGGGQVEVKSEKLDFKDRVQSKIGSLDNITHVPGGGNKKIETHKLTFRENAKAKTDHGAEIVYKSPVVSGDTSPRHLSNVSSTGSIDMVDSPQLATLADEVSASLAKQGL

Row | SMILES | Potency
1 | Nc1[nH]n(-c2ccccc2)c(=O)c1N=Nc1ccc2c(c1)OCO2 | active: 2.24 µM
2 | COc1cc(OC)c(NC(=O)Cn2cnc3nc4c(cc3c2=O)CCCC4)cc1Cl | inactive
3 | Cc1[nH]n2c(=O)c3c(nc2c1-c1ccccc1)CCC3 | inactive
4 | CC(C)(CO)NC(=S)NCc1ccco1 | inconclusive: 28.2 µM [inhibitor, partial curve]
5 | Cc1ccc(NC(=O)Cn2cnc3sc(C(=O)NCc4ccco4)c(C)c3c2=O)cc1Cl | inconclusive: 44.7 µM [inhibitor, partial curve, poor fit]
6 | O=C1C(=O)N(Cc2ccco2)C(c2cccc(Cl)c2)/C1=C(\O)c1ccc2c(c1)OCCO2 (stereo not given) | inactive
7 | Cc1ccc(NC(=O)C2CCC(CNS(=O)(=O)c3ccc4c(c3)C(C)(C)C(=O)N4C)CC2)cc1 (stereo not given) | inactive
8 | CC(C)(C)c1ccc(C(=O)N2CCN(Cc3cc(=O)n4nc(-c5ccccc5F)sc4n3)CC2)cc1 | inconclusive: 2.82 µM [inhibitor, full curve]
9 | COc1cccc(NC(=S)/C(=C(\[O-])c2ccc([N+](=O)[O-])cc2)[n+]2ccccc2)c1 | inconclusive: 14.1 µM [inhibitor, partial curve]
10 | COC(=O)CCCC1=CC2=CC(=O)C(C)(OC(=O)c3cccs3)C(=O)C2=CN1Cc1ccc2c(c1)OCO2 (stereo not given) | active: 12.6 µM
11 | Cc1cc(Cl)ccc1NNC(=O)c1cccs1 | inconclusive: 44.7 µM [inhibitor, single point]
12 | Cc1sc2ncnc(N=Nc3c(O)[nH]c4ccccc34)c2c1C | inconclusive: 0.1 µM [inhibitor, full curve]
13 | CC1=C(C#N)C(c2ccc3ncccc3c2)C(C#N)=C(C)N1 | inactive
14 | Cc1ccc2ncccc2c1[N+](=O)[O-] | inactive
15 | C=CC1=C(C(=O)O)N2C(=O)C(NC(=O)Cc3ccccc3)C2SC1 (stereo not given) | inconclusive: 35.5 µM [inhibitor, partial curve]
16 | N#CCCn1nc(-c2ccc(Br)cc2)cc1Nc1ccccc1NC(=O)C(F)(F)F | inconclusive: 17.8 µM [inhibitor, partial curve]
17 | Fc1ccc(Nc2c(-c3ccco3)nc3ccccn23)cc1 | inconclusive: 39.8 µM [inhibitor, single point]
18 | C=C(C)C1CC=C(CN2CCC(C(=O)OCC)CC2)CC1 (stereo not given) | inactive
19 | Fc1ccc(N2CCN(c3ccc4c(C(F)(F)F)cc(C(F)(F)F)nc4n3)CC2)cc1 | inconclusive: 14.1 µM [inhibitor, partial curve]
20 | Fc1ccc(-n2ncc3c(N4CCN(c5ccccc5F)CC4)ncnc32)cc1 | inconclusive: 0.794 µM [inhibitor, full curve, poor fit]
21 | CN1C(CC(=O)Nc2ccc(Cl)cc2Cl)c2ccccc2CC1(C)C (stereo not given) | inconclusive: 25.1 µM [inhibitor, single point]
22 | NC(=S)Cc1nc(-c2ccccc2)cs1 | active: 20 µM
23 | O=S(=O)(c1ccc(Cl)cc1Cl)n1ccc2cccnc21 | inactive

Row | SMILES | Potency
24 | Cc1sc2ncn(CC(=O)N(C)c3cccc(C(F)(F)F)c3)c(=O)c2c1S(=O)(=O)N1CCN(c2ncccn2)CC1 | inactive
25 | CCN(CC)C(=O)COc1ccc(-c2nnc(Nc3ccc(OC)c(C(=O)NC)c3)c3ccccc23)cc1 | inactive and inconclusive: 17.8 µM [inhibitor, partial curve]
26 | O=c1c(O)c(-c2ccccc2)oc2cc(O)cc(O)c12 | inconclusive: 11.2 µM [inhibitor, partial curve]
27 | Cc1cccc(NC(=O)NC(=S)NC(=O)c2ccccc2)c1 | inconclusive: 25.1 µM [inhibitor, single point]
28 | CCOC(=O)c1ccc(N=Cc2nc(-c3ccccc3)oc2OC(C)=O)cc1 | inconclusive: 6.31 µM [inhibitor, partial curve]
29 | CCOC(=O)c1c(-c2cccs2)csc1NC(=O)CSc1ncn[nH]1 | inconclusive: 25.1 µM [inhibitor, single point]
30 | O=c1c(C=NCC2CCCO2)c(-c2ccccc2)[nH]n1-c1ccc([N+](=O)[O-])cc1 (stereo not given) | inconclusive: 0.891 µM [inhibitor, full curve]
31 | Cc1ccc(CSc2nc3c(c(=O)[nH]2)CCC3)cc1 | inactive
32 | CCCCC(=O)Nc1nc(C)c(-c2csc(Nc3ccccc3OC)n2)s1 | inconclusive: 14.1 µM [inhibitor, partial curve]
33 | Cc1nnc(Sc2cc(NCCCO)c([N+](=O)[O-])c3nonc23)s1 | active: 6.31 µM
34 | O=C(NCc1ccco1)c1ccc(S(=O)(=O)N2CCOCC2)cc1 | inconclusive: 35.5 µM [inhibitor, single point]
35 | Cc1ccccc1NC(=O)CCC(=O)N/N=C/c1ccncc1 | inconclusive: 2.51 µM [inhibitor, full curve]
36 | CC1(C)CC(=O)C(C=NCCc2ccc(O)cc2)=C(O)C1 | inconclusive: 28.2 µM [inhibitor, single point]
37 | COc1cc(NC(=O)C2=C(N3CCOCC3)/C(=C\c3ccc(Cl)cc3Cl)CC2)cc(OC)c1OC | inconclusive: 12.6 µM [inhibitor, partial curve, poor fit]
38 | Cc1cccc(CCNC(=O)c2c[nH]c3ccc(S(=O)(=O)Nc4ccccc4F)cc3c2=O)c1 | inactive
39 | O=C(NCCc1ccc(Cl)cc1)c1ccc2c(c1)N(Cc1cccc(Cl)c1)C(=O)c1ccccc1S2(=O)=O | inactive
40 | CCc1nnc(NC(=O)CN2C(=O)/C(=C/c3cc(OC)c(OC)c(OC)c3)SC2=S)s1 | active: 7.94 µM
41 | COc1ccnc(N2CCN(c3ccccc3)CC2)c1C#N | inconclusive: 12.6 µM [inhibitor, partial curve]
42 | O=c1cc(-c2ccccc2Cl)oc2ccc([N+](=O)[O-])c(O)c12 | active: 12.6 µM and active: 11.2 µM
43 | O=C(CP(=O)(O)CC(=O)c1ccccc1)c1ccccc1 | inactive
44 | CCn1nc(C)c2c(-c3ccccc3)cc(=O)n(C(C)C(=O)NCCc3ccccc3)c21 (stereo not given) | inactive
45 | N#C/C(=C/c1ccc(O)c([N+](=O)[O-])c1)C(=O)Nc1ccccc1 | active: 8.91 µM

Reference: PubChem BioAssay AID1460 (National Center for Advancing Translational Sciences (NCATS), 2008)
